From paper PMC5245780 (Journal of molecular recognition : JMR, 2016) come the findings set out here.

In the assay the target is Hax1-6xHis (human Hax1 isoform 1, full length) (human, UniProt O00165-1). The assay can be described thus: co-IP.

B1: 6xHis-SUMO-Grb7-RAPH (domain or fragment)
chain: not shown
As for B1, the binding result is “binds”.
